# Laboratory results: PubChem BioAssay AID463173 (ICCB-Longwood Screening Facility, Harvard Medical School, 2010)
# Among all 52,000 compounds or so, about 1,700 (3.3%) were called active. No stated cut-off is given here; in the data, active means survival mostly below about 52% (no sharp cut-off); inactive means mostly above about 56%. The list shows a part of the results.
# System: Wild type
# Experiment: growth inhibition of S. aureus wild type versus tarO mutant, primary screen, teichoic acid synthesis inhibitors, RN4220, OD600 (AID 463173)
# Conditions: S. aureus RN4220 wild type/DeltatarO growth, OD600, 18 h, active compounds read low, screened at 18.75 µg/mL (by protocol)
row,Structure (SMILES),survival
1,CSc1nc(NC(C)=O)nc(C)c1Br,inactive: 103%
2,COc1ccc(-c2cc(C(F)(F)F)nc(S(=O)(=O)CCC(=O)NCc3cccnc3)n2)cc1,inactive: 103%
3,Cc1cc(-c2ccc(S(=O)(=O)Nc3ccc(Br)c(C)c3)s2)on1,inactive: 78%
4,CSc1nnc2[nH]c(=O)cc(C)n12,inactive: 68%
5,N#Cc1c[nH]n2c(NC3CCCCC3)c(-c3cccc(Cl)c3)nc12,inactive: 66%
6,CCOc1ccc2oc(=O)cc(CN3CCN(c4ccccc4)CC3)c2c1,inactive: 89%
7,O=C(NC1CCCC1)C1CCCN(S(=O)(=O)c2ccc(-n3cnnn3)cc2)C1 (stereo not given),inactive: 108%
8,CCc1ccc(NC(=O)c2cc3c([nH]c2=O)CC(C)(C)CC3=O)cc1,inactive: 66%
9,COc1ccc(CNC(=O)c2ccc(-c3nc(CSc4ccccc4)c(C)o3)cc2)c(OC)c1,inactive: 100%
10,CC(=O)c1cccc(NC(=O)c2cc3nc(-c4ccc(Br)cc4)cc(C(F)(F)F)n3n2)c1,inactive: 22%
11,Cc1ccc(-c2nc(C)c(CCNC(=O)C(=O)Nc3ccc4c(c3)OCO4)s2)cc1,inactive: 56%
12,COc1ccc(CCN2C(=O)N(c3ccccc3)C(=O)C2CC(=O)Nc2ccccc2)cc1 (stereo not given),inactive: 73%
13,COc1cc2cc(CN(Cc3ccc4c(c3)OCO4)C(=O)NCc3ccccc3)c(=O)[nH]c2cc1OC,inactive: 117%
14,CCOC(=O)C1CCN(CCC(=O)Nc2ccc(OC)cc2)CC1,inactive: 71%
15,CCCN1C(=O)C2(c3ccccc31)c1c(oc3ccc(C)cc3c1=O)C(=O)N2CCOC (stereo not given),inactive: 82%
16,Cc1nc(N2CCOCC2)c2c(C(=O)N3CCN(c4cccc(C)c4C)CC3)c(C)oc2n1,inactive: 148%
17,COc1cc(C(=O)N2CC(=O)Nc3ccc(C)cc3C2c2ccc(F)cc2)cc(OC)c1OC (stereo not given),inactive: 147%
18,COC(=O)c1ccccc1NC(=O)Cn1c(=O)n(CCCC(=O)NCCc2ccc(OC)c(OC)c2)c(=O)c2ccccc21,inactive: 87%
19,O=C1CC(NNc2ccccc2)C(=O)N1c1cccc(Cl)c1 (stereo not given),inactive: 63%
20,Cc1cc(C)c(NC(=O)CCC(=O)N2Cc3ccccc3Oc3ncccc32)c(C)c1,inactive: 73%
21,CCCC(=O)Oc1ccc2ccc(=O)oc2c1,inactive: 120%
22,COc1ccc(Nc2cc(C)c3cc(NC(=O)c4cc(OC)cc(OC)c4)ccc3n2)cc1,inactive: 75%
23,Cc1ccc(C)c(NC(=O)NCc2ccc3c(c2)CCN3C(=O)c2ccccc2)c1,inactive: 66%

row,Structure (SMILES),survival
1,CCSc1nc2ccc(N)cc2s1,inactive: 115%
2,COc1ccc(S(=O)(=O)NCc2ccc(C(=O)NCc3ccccc3)cc2)cc1,inactive: 82%
3,CCCOc1ccc(C2c3c(oc4ccccc4c3=O)C(=O)N2c2nc(C)c(C(=O)OCC)s2)cc1 (stereo not given),inactive: 66%
4,CCN1CCC(N(Cc2ccc(F)cc2)C(=O)Nc2cc(Cl)ccc2C(=O)OC)CC1,inactive: 80%
5,CC(=O)c1ccc(N2CCN(C(=O)c3ccc(Cn4c(=O)[nH]c5ccccc5c4=O)cc3)CC2)cc1,inactive: 143%
6,O=C1C=CC(=O)N1c1ccccc1F,inactive: 99%
7,CC(C)c1ccc(NC(=O)C2(C)Cc3ccccc3C(=O)O2)cc1 (stereo not given),inactive: 102%
8,Cc1ccc2c(c1)-c1c(cnn1CC(=O)N1CCN(c3cc(Cl)ccc3C)CC1)CO2,inactive: 68%
9,Cc1ccc(N=C2CCCN2Cc2ccccc2)c(C#N)c1,inactive: 124%
10,COC(=O)C[N+]1(Cc2ccco2)CCCCC1,inactive: 99%
11,O=C(c1ccccc1)c1ccc2nc(Nc3cc(Cl)ccc3O)c3nncn3c2c1,inactive: 133%
12,CC(C)C(NS(=O)(=O)c1cccc2cccnc12)C(=O)Nc1ccc(OC(F)(F)F)cc1 (stereo not given),inactive: 100%
13,CS(=O)(=O)N(CCc1ccccc1)CC(=O)N1CCOCC1,inactive: 102%
14,COCCNC(=O)CCc1nc2cccnc2n1Cc1ccc(OC)cc1,inactive: 136%
15,COc1ccc(Cl)cc1NC(=O)c1cc2c(s1)-c1ccccc1OC2,inactive: 80%
16,CCc1ccc(OC(C)C(=O)Nc2c(C(=O)c3ccccc3)oc3ccccc23)cc1 (stereo not given),active: 13%
17,Oc1c(Br)cc(Br)cc1-c1nc2ccccc2s1,inactive: 133%
18,CS(=O)(=O)N(CC(=O)NCCSc1ccccc1)c1cc(C(F)(F)F)ccc1Cl,inactive: 70%
19,COc1ccc(OC)c(NC(=O)CSc2cn(CC(=O)N3CCOCC3)c3ccccc23)c1,inactive: 94%
20,COc1cccc(C2C(C(=O)Nc3ccccc3)=C(C)Nc3nc(-c4ccccc4)nn32)c1 (stereo not given),inactive: 76%
21,O=C(c1ccccc1)c1ccccc1NC(=O)c1ccccc1C(=O)O,inactive: 89%
22,Cc1ccc(-c2nc(CS(=O)CC(=O)N3CCN(c4ccccc4)CC3)c(C)o2)cc1 (stereo not given),inactive: 88%
23,CCCN(CCC)C(=O)C1CCCN(S(=O)(=O)c2ccc3c(c2)oc(=O)n3C)C1 (stereo not given),inactive: 82%

row,Structure (SMILES),survival
1,O=C(Nc1ccccc1-c1ccccc1)NC1CCN(CC(=O)N2CCOCC2)CC1,inactive: 102%
2,COc1ccc(-c2noc(-c3ccc(NC4CCCC4)c([N+](=O)[O-])c3)n2)cc1,inactive: 118%
3,CCN(CC)c1cc(C)c2cc(NC(=O)/C=C/c3ccc(C)cc3)ccc2n1,inactive: 68%
4,CC(=O)c1ccc(N2CCN(C(=O)c3cc4cc5cc(C)ccc5nc4s3)CC2)cc1,inactive: 74%
5,Cc1ccc(C(=O)c2oc3ccccc3c2NC(=O)c2cc(-c3ccccc3)on2)cc1F,inactive: 86%
6,Cc1ccc(C)c(NC(=O)C2CCCN(S(=O)(=O)c3ccc4[nH]c(=O)ccc4c3)C2)c1 (stereo not given),inactive: 97%
7,Cc1noc(Cn2c(=O)c3cc4c(cc3n(CC(=O)Nc3cccc(Cl)c3)c2=O)OCO4)n1,inactive: 127%
8,COCCCNc1c2c(nc3ccccc13)CCC2,inactive: 112%
9,O=C(Nc1ccc(SC(F)F)cc1)c1cc(-c2ccc3c(c2)OCCO3)on1,inactive: 83%
10,CC(=O)Nc1nonc1-c1nnc(SCC(=O)Nc2ccc(C)cc2C)n1C,inactive: 84%
11,COc1ccc(NC(=O)[C@@H](c2ccccc2)N2Cc3ccccc3C2=O)cc1OC,inactive: 76%
12,CCOc1ccc(CNC(=O)c2c(C)nn(-c3ccc(F)cc3)c2-n2cccc2)cc1,inactive: 128%
13,CC(NC(=O)Cc1ccccc1)c1ccccc1 (stereo not given),inactive: 110%
14,CC1CCc2c(sc(NC(=O)COc3ccccc3)c2C(=O)Nc2ccccc2Cl)C1 (stereo not given),inactive: 163%
15,Cc1ccc(-n2nc(C(=O)NCCN(C)C)c(=O)n(C)c2=O)cc1,inactive: 85%
16,Cc1ccc(CSCC(=O)N2CCN(c3cc(Cl)ccc3C)CC2)cc1,inactive: 78%
17,Cc1ccc(S(=O)(=O)N2CCN(C(=O)CN3CCOCC3)C2C(C)C)cc1 (stereo not given),inactive: 105%
18,Cc1[nH]c2ccccc2c1C(=O)C(=O)NC1CC(=O)N(c2cccc(F)c2)C1 (stereo not given),inactive: 92%
19,Cc1ccc2oc(C(=O)N(Cc3ccccc3F)C3CCS(=O)(=O)C3)c(C)c2c1 (stereo not given),inactive: 88%
20,COc1cccc(NC(=O)CC2C(=O)OCCN2Cc2ccccc2)c1 (stereo not given),inactive: 161%
21,COc1ccc(C2C(C(N)=O)=C(C)Nc3nc(-c4ccccc4Cl)nn32)cc1 (stereo not given),inactive: 82%
22,Cc1ccc(-c2nn(CC(=O)NC3CCCCC3)c3c2cnc2ccc(F)cc23)cc1C,active: -3%
23,CCOc1cccc2cc(-c3nnc(Nc4ccc(F)c(Cl)c4)s3)c(=O)oc12,inactive: 68%

row,Structure (SMILES),survival
1,Cn1c(=O)[nH]c(=O)c2c1nc1n(CCO)c(-c3ccccc3)cn21,inactive: 76%
2,CCCCOc1ccc(-c2cc3c(=O)n(CC(=O)Nc4ccc(Cl)cc4Cl)ccn3n2)cc1,inactive: 137%
3,O=C(CSc1nc2c(cnn2-c2ccc(F)cc2)c(=O)[nH]1)Nc1ccc(Br)cc1,inactive: 82%
4,CC(C)C(=O)OC1=CN(Cc2ccccc2)S(=O)(=O)c2ccccc21,inactive: 79%
5,Cc1ccc2nc(C(=O)O)c(C(=O)O)nc2c1,inactive: 108%
6,COc1ccccc1CNC(=O)c1ccc2c(c1)sc1nc(-c3ccc(F)cc3)cn12,inactive: 71%
7,COc1cccc(CNC(=O)c2cc(=O)[nH]c3ccc(S(=O)(=O)N4CCCCC4)cc23)c1,inactive: 85%
8,Cc1ccc(Cl)cc1NC(=O)CN(C)S(=O)(=O)c1ccc2c(c1)n(C)c(=O)c(=O)n2C,inactive: 88%
9,Cc1cccc(C)c1Nc1c(-c2ccc(Cl)s2)nc2ncccn12,inactive: 26%
10,COc1ccc(CCNC(=O)c2cc(-c3ccccc3)nc3ccccc23)cc1OC,inactive: 77%
11,CCn1cc(C(=O)OCC(=O)Nc2cc(C)cc(C)c2)c(=O)c2ccc(C)nc21,inactive: 66%
12,COC(=O)c1scc(-c2ccc(C)cc2)c1S(=O)(=O)Nc1cccc(C(F)(F)F)c1,inactive: 124%
13,Cc1nn(CCCC(=O)NCc2ccccc2)c(=O)c2nn(-c3ccccc3)c(C)c12,inactive: 22%
14,COc1cc(CN2CCC(N)CC2)cc(OC)c1OC,inactive: 94%
15,COC(=O)c1sc2cccc(F)c2c1S(=O)(=O)Nc1cc(OC)cc(OC)c1,active: 0%
16,O=C(CSc1nc2ccccc2c(=O)n1CCC(=O)NC1CCCCC1)Nc1ccccc1Cl,inactive: 81%
17,CCc1nnc2c(NCc3ccccc3OC)nc3ccccc3n12,inactive: 121%
18,O=C(CSc1cn(CC(=O)N2CCCCCC2)c2ccccc12)Nc1ccccc1F,inactive: 96%
19,CC(C)c1nnc(N2C(=O)c3oc4ccccc4c(=O)c3C2c2cccc(O)c2)s1 (stereo not given),inactive: 75%
20,CCOc1ccc(CC(=O)Nc2nnc3n2CCS3)cc1,inactive: 70%
21,CCC(=O)N1CCc2cc(S(=O)(=O)NCCC(=O)Nc3ccc(OC)c(Cl)c3)ccc21,inactive: 92%
